The source gives many values for each of these; only a part stands here.
Legend:
[1] = tested on: Anopheles gambiae (target-site-resistant and metabolic-resistant strain: RSPH); assay: Glazed tile contact test, knock-down; type: in vivo
Procedure: (§1) To produce a suitable preparation Transfluthrin was dissolved in acetone. The active compound solution was pipetted onto a glazed tile and, after drying, adult mosquitoes of the species: • Anopheles gambiae (target-site-resistant and metabolic-resistant strain: RSPH), • Anopheles gambiae (target-site-resitant and metabolic-resistant strain: Tiassalé), • Anopheles gambiae (tar et-site-resitant and metabolic-resistant strain: Akron), • Anopheles gambiae (target-site-resistant strain: VK7), and • Anopheles funestus (metabolic-resistant strain FUMOZ-R) were placed onto the treated tile (each strain was tested on separate tiles). The exposition time was 30 minutes.
(§2) 0.25 hours, 0.5 hours, 1 hour, 2 hour, 3 hour, 4 hour and 24 hours after contact to the treated surface, the knock-down proportion of the test animals in % was determined. Here, 100% (effect) means that all mosquitoes have been killed; 0% (effect) means that none of the mosquitoes have been killed.
Similarly as outlined in example 2 for Transfluthrin, Metofluthrin efficacy was assessed against • Anopheles gambiae (target-site-resistant and metabolic-resistant strain: RSPH), • Anopheles funestus (metabolic-resistant strain FUMOZ-R), and • Culex quinquefasciatus (metabolic-resistant to DDT; strain P00), with the results shown in Tables 10 to 12. 0.25 hours, 0.5 hours, 1 hour, 2 hour, 3 hour, 4 hour and 24 hours after contact to the treated surface, the knock-down proportion of the test animals in % is depicted in Tables 10 to 12. 100% (effect) means that all mosquitoes have been killed; 0% (effect) means that none of the mosquitoes have been killed.
Similarly as outlined in example 2 for Transfluthrin, Metofluthrin efficacy was assessed against • Anopheles gambiae (target-site-resistant and metabolic-resistant strain: RSPH), • Anopheles funestus (metabolic-resistant strain FUMOZ-R), and with the results shown in Tables […]. 0.25 hours, 0.5 hours, 1 hour, 2 hour and 3 hours after contact to the treated surface, the knock-down proportion of the test animals in % is depicted in Tables 13 to 14. 100% (effect) means that all mosquitoes have been killed; 0% (effect) means that none of the mosquitoes have been killed.

[2] = tested on: Anopheles gambiae (strain: Akron); assay: Glazed tile contact test, knock-down; type: in vivo
Procedure: as §1, §2

Work on `CC1(C)[C@H](C=C(Cl)Cl)[C@H]1C(=O)OCc1c(F)c(F)cc(F)c1F` [Transfluthrin, (1R,3S)-3-(2,2-Dichlorovinyl)-2,2-dimethyl-1-cyclopropanecarboxylic acid (2,3,5,6-tetrafluorophenyl)methyl ester] yielded an Effect % ([1]; 0.32 g/ha, 0.25 h after contact) of 10%, an Effect % ([1]; 0.32 g/ha, 0.5 h after contact) of 25% and an Effect % ([1]; 0.32 g/ha, 1 h after contact) of 25%. It also gave an Effect % ([1]; 0.32 g/ha, 2 h after contact) of 35%, an Effect % ([1]; 0.32 g/ha, 3 h after contact) of 55% and an Effect % ([1]; 0.32 g/ha, 4 h after contact) of 40%. It also gave an Effect % ([1]; 0.32 g/ha, 24 h after contact) of 60%, an Effect % ([1]; 1.6 g/ha, 0.25 h after contact) of 100% and an Effect % ([1]; 1.6 g/ha, 0.5 h after contact) of 100%. It also gave an Effect % ([1]; 1.6 g/ha, 1 h after contact) of 100%, an Effect % ([1]; 1.6 g/ha, 2 h after contact) of 100% and an Effect % ([1]; 1.6 g/ha, 3 h after contact) of 100%. For the same compound, the Effect % ([1]; 1.6 g/ha, 4 h after contact) was 100%, the Effect % ([1]; 1.6 g/ha, 24 h after contact) was 100% and the Effect % ([1]; 8 g/ha, 0.25 h after contact) was 100%. The Effect % ([1]; 8 g/ha, 0.5 h after contact) was 100%, the Effect % ([1]; 8 g/ha, 1 h after contact) was 100% and the Effect % ([1]; 8 g/ha, 2 h after contact) was 100%. The Effect % ([1]; 8 g/ha, 3 h after contact) was 100%, the Effect % ([1]; 8 g/ha, 4 h after contact) was 100% and the Effect % ([1]; 8 g/ha, 24 h after contact) was 100%. It also gave an Effect % ([1]; 40 g/ha, 0.25 h after contact) of 100%, an Effect % ([1]; 40 g/ha, 0.5 h after contact) of 100% and an Effect % ([1]; 40 g/ha, 1 h after contact) of 100%. The Effect % ([1]; 40 g/ha, 2 h after contact) was 100%, the Effect % ([1]; 40 g/ha, 3 h after contact) was 100% and the Effect % ([1]; 40 g/ha, 4 h after contact) was 100%. For the same compound, the Effect % ([1]; 40 g/ha, 24 h after contact) was 100%, the Effect % ([1]; 200 g/ha, 0.25 h after contact) was 100% and the Effect % ([1]; 200 g/ha, 0.5 h after contact) was 100%. The Effect % ([1]; 200 g/ha, 1 h after contact) was 100%, the Effect % ([1]; 200 g/ha, 2 h after contact) was 100% and the Effect % ([1]; 200 g/ha, 3 h after contact) was 100%. For the same compound, the Effect % ([1]; 200 g/ha, 4 h after contact) was 100%, the Effect % ([1]; 200 g/ha, 24 h after contact) was 100% and the Effect % ([2]; 1.6 g/ha, 0.25 h after contact) was 5%. For the same compound, the Effect % ([2]; 1.6 g/ha, 0.5 h after contact) was 15%, the Effect % ([2]; 1.6 g/ha, 1 h after contact) was 5% and the Effect % ([2]; 1.6 g/ha, 2 h after contact) was 10%. The Effect % ([2]; 1.6 g/ha, 3 h after contact) was 10%, the Effect % ([2]; 1.6 g/ha, 4 h after contact) was 5% and the Effect % ([2]; 1.6 g/ha, 24 h after contact) was 15%. The Effect % ([2]; 8 g/ha, 0.25 h after contact) was 90%, the Effect % ([2]; 8 g/ha, 0.5 h after contact) was 100% and the Effect % ([2]; 8 g/ha, 1 h after contact) was 100%. The Effect % ([2]; 8 g/ha, 2 h after contact) was 95%, the Effect % ([2]; 8 g/ha, 3 h after contact) was 90% and the Effect % ([2]; 8 g/ha, 4 h after contact) was 90%. For the same compound, the Effect % ([2]; 8 g/ha, 24 h after contact) was 75%, the Effect % ([2]; 40 g/ha, 0.25 h after contact) was 100% and the Effect % ([2]; 40 g/ha, 0.5 h after contact) was 100%. For the same compound, the Effect % ([2]; 40 g/ha, 1 h after contact) was 100%, the Effect % ([2]; 40 g/ha, 2 h after contact) was 100% and the Effect % ([2]; 40 g/ha, 3 h after contact) was 100%. It also gave an Effect % ([2]; 40 g/ha, 4 h after contact) of 100%, an Effect % ([2]; 40 g/ha, 24 h after contact) of 100% and an Effect % ([2]; 200 g/ha, 1 h after contact) of 100%. For the same compound, the Effect % ([2]; 200 g/ha, 2 h after contact) was 100%, the Effect % ([2]; 200 g/ha, 3 h after contact) was 100% and the Effect % ([2]; 200 g/ha, 4 h after contact) was 100%. For the same compound, the Effect % ([2]; 200 g/ha, 24 h after contact) was 100%.

— patent US20150289513A1, “USE OF A COMPOUND COMPRISING A POLYFLUOROBENZYL MOIETY AGAINST INSECTICIDE-RESISTANT PESTS” (priority 2012, published 2015)
